# Data taken from the RNAGym collection of RNA variant scans (doi:10.7554/elife.90254).
# The source gives no read counts; variants with many changes may rest on few reads.
# B1: LINE1-mini (parent)
# chain: GGCAGAGCUCAACACAGCGUGGCAAAGUGGCUGUGGCUAGACUGCC
# Variants of: B1
# Test: self-cleavage, relative activity (ratio to wild type); higher = more cleavage; in vitro, sequencing; the parent is a self-cleaving ribozyme
row,Variant,self-cleavage
1,G19U G22C C31U A41G,0.16
2,G19C U20C A39U,0.69
3,G19U A24U C45U,1.04
4,G19U G22A G29U,2.6
5,G19U A25G A39G,0.01
6,G19U G21A A25U C46G,0.12
7,G19U A26G G33C G36A,0.09
8,G19U U28A G36U A39C C42A,0.02
9,G19C G21U C37A,0.02
10,G19C G21U C37U,0.02
11,G19C G27C G44C C46U,0.05
12,G19C G35C G40U,0.07
13,G19C G21U U28A U38A,0.05
14,G19C U20C C23A,0.53
15,G19C G30A C37U C42U,0.04
16,G19U G22A G44A,0.22
17,G19U U20A G30C U34A,0.05
18,G19U C23G A24C A25U G29C,0.06
19,G19C U20G U32A,0.13
20,G19C G21C G30C C42U,0.06
21,G19C G22A A41U C42A,0.36
22,G19U G35A C42U,0.07
23,G19U G35U A41C,0.02
24,G19U G22A U32C,0.63

row,Variant,self-cleavage
1,G19U G27U G35U,0.09
2,G19U G21C U28A,1.59
3,G19U G30C C31G,0.03
4,G19U U28G C31U,0.61
5,G19U G22C U34C A41U,0.05
6,G19U C23U U34A G40U,0.02
7,G19U G29C A41G,0.02
8,G19C G29U C45A C46U,0.38
9,G19U G27A G40U,0.05
10,G19U C31A U34A,0.04
11,G19U G27C C42U U43A,0.05
12,G19U G33C U34A,0.01
13,G19U G22A C31A U32G C45A,0.04
14,G19U G35A A39C,0.04
15,G19C U38C A41G,0.11
16,G19U A26U U32G G35U C42U,0.03
17,G19U G44C C45A,0.1
18,G19U G22U G40C C42G,0
19,G19U A24C U34A U43A,0.03
20,G19C G27U U34A,0.08
21,G19U C23A A24C C37G U38C,0
22,G19C G27U U32A G44C,0.1
23,G19U C37U C46A,0.03
24,G19C U32A A39C,0.04

row,Variant,self-cleavage
1,G19U U28C G30C C37A,0.01
2,G19C U20A G21C,0.4
3,G19C U20G U34A C37G,0.04
4,G19U G40U C46G,0.46
5,G19C G27C U28G G35U,0.01
6,G19U G21C C42G,0.01
7,G19U G27A C37A U38C C45A,0.01
8,G19U G21A G40U,0.11
9,G19U U20C G27U U28A,0.32
10,G19C G30U G33U,0.14
11,G19U G27U G40C C45A,0.01
12,G19C G29U U38A G40U A41U,0.05
13,G19U G29C G40U C46A,0.1
14,G19U G21A G35U G36C,0.26
15,G19U U28A G33A,0.26
16,G19U G27A G33C G44A,0.05
17,G19C U20C G21U,0.16
18,G19C G21U C23U,1.21
19,G19U A25C U38G C46G,0
20,G19U A26G C45A C46G,0.03
21,G19C G30U A41G,0.06
22,G19C G22U U34G G36U C42U,0.1
23,G19U G44C C46U,0.06
24,G19C U20A G27A U32C C37U,0.03

row,Variant,self-cleavage
1,G19U A41C C42G,0.04
2,G19C G22C G29U U38A G40U,0.06
3,G19U U20A G36U,0.03
4,G19U G29C C37G,0.02
5,G19U A26G C45A,0.69
6,G19U A26U C31U,0.3
7,G19U G33A A39U,0.06
8,G19U G27C G29U G44C,0.15
9,G19U G21U C31A,0.05
10,G19U G29U C46A,0.36
11,G19C G21U A39G,0.06
12,G19C U20G C37A U43C,0.84
13,G19U G21C G30A G33U,0.04
14,G19U G36A A39U C46U,0.09
15,G19U G27U U38C,0.15
16,G19C G22C G27U G30C,0.14
17,G19C G35U C37U,0.02
18,G19U G21U U38C,0.02
19,G19U U28C A39C,0.04
20,G19C G21U U38G,0.01
21,G19C G21U G33C G44A,0.18
22,G19U U20C C31U C46G,0.07
23,G19C G21C G40U,0.03
24,G19C U38C C45U,0.19

row,Variant,self-cleavage
1,G19U C31U G33U A41C,0.06
2,G19C U32A C37U,0.04
3,G19C G27U C46U,0.12
4,G19C G36C C37G,0.1
5,G19U G27C A41C,0.03
6,G19U U20A A25U C37G,0.04
7,G19U G22U G30A G36C G40U,0.08
8,G19U C23G A41G G44C,0.01
9,G19U G30C U34C G40C,0.04
10,G19U A25U G44C,0.95
11,G19C U20C U43A,0.03
12,G19U U20G A24G A39G G44A,0.03
13,G19U G27A U28C G29U G36C,0.08
14,G19U G22U G30U U38A G40U,0.14
15,G19C G21U A25U G30U C37A,0.07
16,G19C U28A A41G,0.19
17,G19C G22C U28G G35A,0.21
18,G19C U34A C37G C42A,0.04
19,G19U A41C U43G,0.01
20,G19U C31A A39G,0
21,G19U G22C A26G C42G,0.01
22,G19U C23A G30U G33C C42A,0.06
23,G19U G30A C31U A39C,0.03
24,G19U A25U C46G,0.13

row,Variant,self-cleavage
1,G19U G21U G35A G44U,0.01
2,G19U G21C G22A G40U C45G,0.05
3,G19U A24G U28C,0.83
4,G19U A24U A26C A39U,0.18
5,G19U G22C C42A,0.15
6,G19C G22U A25C C46U,0.21
7,G19U G40C G44C,0.01
8,G19C U20G G21C,1.57
9,G19C G29C A39U G40C,0.03
10,G19U G22U C31A U32C C46U,0.1
11,G19U U20G C23U G40U,0.09
12,G19U G21C G27U U28G G29A C42G,0.06
13,G19U C23A U32A U38G,0.01
14,G19U A24G U32G,0.1
15,G19U C31G G36A,0.07
16,G19U G33U G40U,0.04
17,G19C U28C G44U,0.25
18,G19U C37U G40A A41C,0.01
19,G19C G22C A24U A25U C37U,0.01
20,G19C U28A G33A,0.38
21,G19U U28G A39C,0.03
22,G19U G27A G33U C46U,0.25
23,G19C G33U G36U U43C,0.06
24,G19U A24G C31U U34A,0.01

row,Variant,self-cleavage
1,G19U G33U C37G C46A,0.03
2,G19U A25C G29A C37G,0
3,G19C U28G C37A,0.01
4,G19C U28G C37G,0.01
5,G19U G22C A24U U28C,0.17
6,G19C U32G U34A,0.03
7,G19U U20A U43A,0.02
8,G19U G35A G40A,0.04
9,G19C U28G C45U,0.36
10,G19U G40A A41C,0.02
11,G19C U20A U34C,0.29
12,G19U C37U U38C C45A,0.02
13,G19U G30C U43G,0
14,G19U G22A U28A,0.29
15,G19C U20A A25C A26C G27C,0.15
16,G19C U20A C23U A26U,0.36
17,G19U U28A G30C C46U,0.76
18,G19C U20G A24C,0.26
19,G19U G36A C46U,0.05
20,G19U G33U C37U,0.05
21,G19C U20C A26G,0.55
22,G19U U28A G33A A39U G44C,0.05
23,G19U A24C C31U,0.52
